Measured values as given in the antibiotic and cytotoxicity screens of Wong et al. (2023).
The list shows a part of the results.

What was measured:
[1] = tested on: HSkMC (human skeletal muscle cells); experiment: cytotoxicity call (relative viability < 0.9); conditions: 10 µM
[2] = tested on: HepG2; experiment: cytotoxicity call (relative viability < 0.9); conditions: 10 µM
[3] = tested on: S. aureus RN4220; experiment: growth inhibition call (relative growth <= 0.2); conditions: 50 µM

Row | Structure (SMILES) | cytotoxicity call [1] | cytotoxicity call [2] | growth inhibition call [3]
1 | OC[C@@H]1CC[C@@H]2O[C@H](CCc3ccc(C#Cc4ccccc4)cc3)[C@H](n3cc(-c4ccccc4)nn3)C[C@@H]2O1 | active | inactive | inactive
2 | COc1ccc(S(=O)(=O)Nc2ccc3c(c2)CC(=O)N([C@H](C)CO)C[C@H](C)[C@@H](CN(C)Cc2ccc(Cl)c(Cl)c2)O3)cc1 | inactive | inactive | inactive
3 | C[C@@H]1CN([C@H](C)CO)C(=O)c2cc(NC(=O)Nc3ccc(C(F)(F)F)cc3)ccc2O[C@@H](C)CCCCO[C@@H]1CN(C)S(=O)(=O)c1ccccc1 | inactive | inactive | inactive
4 | C[C@@H]1CN([C@@H](C)CO)C(=O)c2cccc(NC(=O)c3ccncc3)c2O[C@H]1CN(C)Cc1ccc(Oc2ccccc2)cc1 | inactive | inactive | inactive
5 | O=C1C[C@@H](O)[C@@H](O)c2c(O)cccc21 | inactive | inactive | inactive
6 | C[C@H](CO)N1C[C@H](C)[C@H](CN(C)S(=O)(=O)c2cccs2)OCCCC[C@H](C)Oc2ccc(NC(=O)c3ccccc3)cc2C1=O | inactive | inactive | inactive
7 | C[C@H]1COC(=O)[C@H](Cc2ccc(F)cc2)CC=CC[C@@H](CC(=O)N[C@@H](CO)Cc2ccccc2)C(=O)N1 | inactive | inactive | inactive
8 | COc1ccc(NC(=O)N(C)C[C@H]2Oc3ccc(NC(=O)Cn4cnnn4)cc3C(=O)N([C@H](C)CO)C[C@H]2C)cc1 | inactive | inactive | inactive
9 | C=CC[C@@H](CC(=O)N[C@@H](CO)Cc1ccccc1)C(=O)N[C@@H](C)COC(=O)[C@@H](CC=C)CC(=O)OC(C)(C)C | inactive | inactive | inactive
10 | C[C@H]1CN([C@@H](C)CO)C(=O)c2cccc(NC(=O)Nc3ccc(F)cc3)c2O[C@H]1CN(C)Cc1ccc(-c2ccccc2)cc1 | inactive | inactive | inactive
11 | C[C@@H]1CN([C@H](C)CO)S(=O)(=O)c2ccc(C#Cc3ccccc3F)cc2O[C@H]1CN(C)C(=O)Cc1cccnc1 | inactive | inactive | inactive
12 | COc1ccc2[nH]c3c(-c4cccc5ccccc45)nccc3c2c1 | active | inactive | inactive
13 | COc1ccc(NC(=O)Nc2ccc3c(c2)C(=O)N([C@H](C)CO)C[C@H](C)[C@@H](CN(C)Cc2ccc(C(F)(F)F)cc2)OCCCC[C@@H](C)O3)cc1 | inactive | inactive | inactive
14 | C[C@H]1CCCCO[C@@H](CN(C)C(=O)C2CCCCC2)[C@@H](C)CN([C@@H](C)CO)C(=O)c2cc(NC(=O)Nc3ccc(F)cc3)ccc2O1 | inactive | active | inactive
15 | NC1(C(=O)Nc2ccc3nc(-c4ccc(F)cc4)oc3c2)CC1 | inactive | inactive | inactive
16 | C[C@@H]1CN([C@@H](C)CO)C(=O)c2cc(NC(=O)NC3CCCCC3)ccc2O[C@@H](C)CCCCO[C@@H]1CN(C)Cc1ccccc1 | inactive | inactive | inactive
17 | Cc1snnc1-c1ccccc1 | inactive | inactive | inactive
18 | C[C@@H]1CN([C@H](C)CO)C(=O)c2cccc(NC(=O)C3CC3)c2O[C@@H]1CN(C)S(=O)(=O)c1cn(C)cn1 | inactive | inactive | inactive
19 | COc1ccc(NC(=O)N(C)C[C@H]2Oc3c(NC(=O)Nc4ccc(C(F)(F)F)cc4)cccc3C(=O)N([C@H](C)CO)C[C@@H]2C)cc1 | inactive | inactive | inactive
20 | O=C(C[C@@H]1CC[C@H]2[C@@H](COC[C@@H](O)CN2C(=O)C2CC2)O1)NCc1ccncc1 | inactive | inactive | inactive
21 | c1ccc2nc(C3=NCCN3)cnc2c1 | inactive | inactive | inactive
22 | CC(C)NC(=O)N(C)C[C@@H]1Oc2ccc(NS(=O)(=O)c3ccc(Cl)cc3)cc2C(=O)N([C@H](C)CO)C[C@H]1C | inactive | inactive | inactive
23 | C[C@@H]1CN([C@H](C)CO)C(=O)Cc2cc(NC(=O)CCCCCC(=O)Nc3ccccc3N)ccc2O[C@@H]1CN(C)C(=O)Nc1ccc(F)cc1 | inactive | inactive | inactive
24 | C[C@@H]1CCCCO[C@@H](CN(C)C(=O)Cc2ccccc2)[C@@H](C)CN([C@@H](C)CO)C(=O)c2cc(NS(=O)(=O)c3ccc(F)cc3)ccc2O1 | inactive | inactive | inactive
25 | C[C@H]1CCCCO[C@H](CN(C)C(=O)NC2CCCCC2)[C@@H](C)CN([C@@H](C)CO)C(=O)c2cc(NC(=O)Cc3ccccc3)ccc2O1 | inactive | inactive | inactive
26 | C[C@@H]1CN([C@@H](C)CO)C(=O)c2cc(C#CCN(C)C)cnc2O[C@H]1CN(C)Cc1cccc(C(=O)O)c1 | inactive | inactive | inactive
27 | C[C@@H]1CCCCO[C@@H](CN(C)Cc2ccncc2)[C@H](C)CN([C@@H](C)CO)C(=O)c2cc(NS(=O)(=O)c3ccc(Cl)cc3)ccc2O1 | inactive | inactive | inactive
28 | C[C@@H]1CN([C@H](C)CO)C(=O)Cc2cc(NC(=O)CCN3CCOCC3)ccc2O[C@H]1CN(C)S(=O)(=O)c1cccs1 | inactive | inactive | inactive

Row | Structure (SMILES) | cytotoxicity call [1] | cytotoxicity call [2] | growth inhibition call [3]
29 | COc1ccc(S(=O)(=O)Nc2ccc3c(c2)C(=O)N([C@H](C)CO)C[C@H](C)[C@@H](CN(C)S(C)(=O)=O)O3)cc1 | inactive | inactive | inactive
30 | c1ccc(CCNc2ccnc3cc4ccccc4cc23)cc1 | active | active | active
31 | Cc1noc(C)c1NC(=O)N(C)C[C@@H]1Oc2ccc(NC(=O)NC(C)C)cc2C(=O)N([C@H](C)CO)C[C@@H]1C | inactive | inactive | inactive
32 | C[C@H]1C[C@@H](OC2[C@@H](O)[C@H](O)[C@H](O)[C@H](O)[C@@H]2O)[C@@H](N)C[C@@H]1NC(=N)C(=O)O (stereo not given in full) | inactive | inactive | inactive
33 | C[C@H](CO)N1C[C@H](C)[C@@H](CN(C)C(=O)Nc2cccc3ccccc23)Oc2ccc(NC(=O)Cn3cnnn3)cc2C1=O | inactive | inactive | inactive
34 | CC(=O)Oc1ccccc1C(=O)Nc1ncc([N+](=O)[O-])s1 | active | active | active
35 | C[C@@H]1CN([C@H](C)CO)S(=O)(=O)c2ccc(C#CC3(O)CCCC3)cc2O[C@@H]1CN(C)C(=O)Nc1ccc(F)cc1 | inactive | inactive | inactive
36 | C[C@@H]1CCCCO[C@H](CN(C)C(=O)c2ccccc2)[C@@H](C)CN([C@H](C)CO)C(=O)c2cc(NC(=O)Nc3cccc4ccccc34)ccc2O1 | inactive | inactive | inactive
37 | C[C@@H]1CN([C@@H](C)CO)C(=O)c2cccc(NC(=O)C3CCOCC3)c2O[C@H]1CN(C)C(=O)Nc1ccc2c(c1)OCO2 | inactive | inactive | inactive
38 | C[C@@H]1CN([C@H](C)CO)C(=O)c2cc(NS(=O)(=O)c3ccc(Cl)cc3)ccc2O[C@@H](C)CCCCO[C@@H]1CN(C)C(=O)c1ccncc1 | inactive | inactive | inactive
39 | OCC1(CO)COC(COc2ccccc2)=N1 | inactive | inactive | inactive
40 | C[C@@H]1CN([C@@H](C)CO)C(=O)c2cc(NS(C)(=O)=O)ccc2O[C@@H](C)CCCCO[C@H]1CN(C)S(=O)(=O)c1cccs1 | inactive | inactive | inactive
41 | COc1ccc(S(=O)(=O)N(C)C[C@H]2Oc3c(NS(=O)(=O)c4cn(C)cn4)cccc3C(=O)N([C@H](C)CO)C[C@H]2C)cc1 | inactive | inactive | inactive
42 | COc1ccc(S(=O)(=O)Nc2ccc3c(c2)C(=O)N([C@@H](C)CO)C[C@@H](C)[C@H](CN(C)C(=O)NC2CCCCC2)OCCCC[C@H](C)O3)cc1 | inactive | inactive | inactive
43 | C[C@@H]1CCCCO[C@H](CN(C)CC2CC2)[C@@H](C)CN([C@@H](C)CO)C(=O)c2cc(NS(=O)(=O)c3ccc(Cl)cc3)ccc2O1 | inactive | inactive | inactive
44 | C[C@@H]1CCCCO[C@@H](CN(C)Cc2ccncc2)[C@@H](C)CN([C@@H](C)CO)C(=O)c2cc(NC(=O)Nc3ccccc3)ccc2O1 | inactive | inactive | inactive
45 | Cc1noc(C)c1S(=O)(=O)Nc1ccc2c(c1)C(=O)N([C@H](C)CO)C[C@H](C)[C@H](CN(C)S(C)(=O)=O)OCCCC[C@H](C)O2 | inactive | inactive | inactive
46 | COc1ccc(CN(C)C[C@H]2OCCCC[C@@H](C)Oc3ccc(NC(=O)Nc4cccc5ccccc45)cc3C(=O)N([C@H](C)CO)C[C@@H]2C)cc1 | active | active | inactive
47 | C[C@@H](O)Cn1cnc2c1c(=O)n(C)c(=O)n2C | inactive | inactive | inactive
48 | C/C1=C/[C@@]23O[C@@]2(C[C@H](C)[C@H]3O[C@H]2O[C@@H](CO)[C@@H](O)[C@@H](O)[C@@H]2O)C(=O)[C@H](C)[C@H](O)[C@@H]2C([C@H](O)[C@@H]1O)C2(C)C (stereo not given in full) | inactive | inactive | inactive
49 | Cc1noc(C)c1S(=O)(=O)N(C)C[C@H]1Oc2ccc(NC(=O)Cn3cnnn3)cc2C(=O)N([C@H](C)CO)C[C@H]1C | active | inactive | inactive
50 | CC(=O)N(C[C@@H](O)CO)c1c(I)c(C(=O)NCCO)c(I)c(C(=O)NC[C@@H](O)CO)c1I | inactive | inactive | inactive
51 | C[C@@H]1CN([C@@H](C)CO)C(=O)c2cccc(NC(=O)C3CCOCC3)c2O[C@@H]1CN(C)S(=O)(=O)c1ccc(F)cc1 | inactive | inactive | inactive
52 | CCC(=O)N1CCC[C@](C)(C(=O)NS(=O)(=O)c2ccc(S(C)(=O)=O)cc2)C1 | inactive | inactive | inactive
53 | C[C@H](NC(=O)C[C@@H]1CC[C@@H](NC(=O)CN2CCOCC2)[C@@H](CO)O1)c1ccccc1 | inactive | inactive | inactive
54 | CC(C)(C)NCc1ccccc1F | inactive | inactive | inactive
55 | C[C@H](CO)N1C[C@H](C)[C@H](CN(C)S(C)(=O)=O)Oc2ccc(NC(=O)CCN3CCOCC3)cc2CC1=O | inactive | inactive | inactive
